The whole screen tested about 50,000 compounds, of which about 800 (1.6%) showed an effect of 50% or more. The list shows a part of the results.
Each compound was assayed against Bcl-2-like protein 10 (Homo sapiens) (UniProt Q9HD36) (assay: TR3 peptide-Bcl-B binding displacers, biochemical primary FP assay, phenotype converters (AID 1240;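 further: 0% = Bcl-B with tracer peptide and DMSO and 100% = tracer peptide lacking Bcl-B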)). Conditions: GST-Bcl-B / FITC-TR3 peptide fluorescence polarization; stronger effect = higher value; compound at 3.75 mg/L.
Chain of UniProt Q9HD36 (Q9HD36 whole entry, looked up): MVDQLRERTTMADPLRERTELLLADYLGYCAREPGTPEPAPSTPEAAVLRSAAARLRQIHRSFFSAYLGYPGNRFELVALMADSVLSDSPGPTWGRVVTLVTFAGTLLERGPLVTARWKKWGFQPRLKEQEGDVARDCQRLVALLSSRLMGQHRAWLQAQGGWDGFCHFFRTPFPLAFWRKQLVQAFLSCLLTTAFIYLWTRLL

| Compound | displacement [%] |
| --- | --- |
| O=C1/C(=C/C(Cl)=C/c2ccc([N+](=O)[O-])cc2)SC(=S)N1c1ccc(O)cc1 | 15.4 |
| CNC(=O)c1ccc(N(C)S(=O)(=O)c2ccccc2)cc1 | 3 |
| O=C(c1ccc(N(Cc2ccc([N+](=O)[O-])cc2)Cc2ccc([N+](=O)[O-])cc2)cc1)C(F)(F)F | -4.1 |
| Cc1nc(N)nc(-c2ccccc2O)n1 | 3 |
| CCCCCCCNC1CC(=O)N(c2ccc(Br)cc2)C1=O (configuration not stated) | 1.7 |
| CC(C)(C)c1ccc(S(=O)(=O)Nc2nccs2)cc1 | 9.4 |
| CC(C)(C)NCCCCOc1cc(Cl)ccc1Cl | 5.8 |
| Cc1cc(Cl)ccc1NC(=O)C(=O)N/N=C/c1ccccc1F | 4.5 |
| CN(C)/C=C1\N=C(c2ccccc2F)OC1=O | -3.9 |
| O=C(/C=C/c1ccc(Cl)cc1)Nc1ccc(Cl)cn1 | 8.5 |
| COc1ccc(CCNC(=O)c2ccc(Cl)cc2)cc1OC | -8.9 |
| Cc1cc(C)cc(CC(C(=O)Nc2ccc(I)cc2)C(C)C(=O)O)c1 (configuration not stated) | 8.7 |
| CN(C)CCNC(=O)c1ccc(Br)cc1 | 4.9 |
| O=C(Nc1nc2ccc(Br)cc2s1)c1cccs1 | -3.7 |
| CCOC(=O)c1csc(NC(=O)c2ccc(S(=O)(=O)N3CCCC3)cc2)n1 | -6.9 |
| Cc1ccc(N=CC2=C(O)CC(C)(C)CC2=O)nc1 | -3.3 |
| Cc1cc(C)nc(SCC(=O)Nc2nncs2)n1 | -4.7 |
| CC(=O)NN1C(=O)/C(=C\c2ccc(I)o2)SC1=S | -38.1 |
| COC(=O)c1c(C)oc2ccc(OC(=O)c3ccc(OC)c(OC)c3)cc12 | 10.8 |
| COC(=O)CN(c1cc(C)ccc1OC)S(=O)(=O)c1ccccc1 | 12.7 |
| OC(COc1ccc(Cl)cc1)CSc1ncn[nH]1 (configuration not stated) | -2.1 |
| COc1ccc(N(CC(=O)NCc2ccncc2)S(=O)(=O)c2ccc(C)cc2)cc1 | 7.5 |

| Compound | displacement [%] |
| --- | --- |
| COc1ccc(CN2CCN(S(=O)(=O)c3ccccc3)CC2)cc1OC | -10.4 |
| CCOC(=O)C1=C(C)N=c2s/c(=C\C=C\c3ccco3)c(=O)n2C1c1ccc(OC)cc1 (configuration not stated) | 63.9 |
| Cc1ccc(-c2ccc(C(=O)Nc3cccnc3)o2)cc1Cl | 5.6 |
| COc1ccc(CCNC(=O)C(=O)Nc2cccc(C(F)(F)F)c2)cc1 | -7.6 |
| COc1ccc(C2/C(=C(/O)c3ccccc3)C(=O)C(=O)N2c2nc3ccccc3s2)cc1 (configuration not stated) | -9.1 |
| O=C(c1ccc([N+](=O)[O-])cc1)N1CCN(Cc2ccccc2Cl)CC1 | -12.7 |
| CC(C)(C)NC(=O)c1nn2c(c1Br)NC(c1cccs1)CC2C(F)(F)F (configuration not stated) | 3.6 |
| COc1ccc(C(=O)N2CCN=C2c2ccccc2)cc1OC | 11.9 |
| COc1ccccc1/C=C1\SC(=S)N(Nc2nc(C)cc(C)n2)C1=O | -5.6 |
| COc1ccccc1C/C(N)=N/OC(=O)c1ccc(Cl)cc1 | 13.6 |
| CSc1ccc(/C=N/Nc2nc(Nc3ccccc3)nc(N3CCOCC3)n2)cc1 | 1 |
| O=C(O)CCCCCN1C(=O)C(=O)/C(=C(/O)c2ccc([N+](=O)[O-])cc2)C1c1ccc(Cl)cc1 (configuration not stated) | -2.6 |
| CC(=O)Oc1c(/C=C(\C#N)C(N)=O)[nH]c2ccccc12 | 1.8 |
| O=[N+]([O-])c1cc(-c2ccn[nH]2)c(Cl)cc1Cl | 4.5 |
| COC(=O)CN1C(=O)/C(=C\c2c(F)cccc2Cl)SC1=S | -1.3 |
| Cc1ccc(C(=O)NC(=S)Nc2ccc(N3CCCCC3)cc2)cc1 | 0.6 |
| CN1C(=O)/C(=C2\SC(=S)N(c3cccc(Cl)c3)C2=O)c2ccccc21 | 15.9 |
| CC(=O)NC1=NC(=O)/C(=C\c2ccc(-c3cccc([N+](=O)[O-])c3)o2)S1 | -21.3 |
| CCOC(=O)c1c(C)nc(-c2ccccc2)nc1NC(=O)c1ccccc1 | 6.3 |
| O=C(NCC1CCCO1)C(=O)Nc1ccc(F)cc1 (configuration not stated) | 9 |
| CCOC(=O)c1ccc(NC(=O)/C(=C\c2cccc([N+](=O)[O-])c2)NC(=O)c2ccccc2)cc1 | 12 |
| O=C(NC(Nc1ccc(F)cc1)C(Cl)(Cl)Cl)c1ccco1 (configuration not stated) | -9.1 |

| Compound | displacement [%] |
| --- | --- |
| O=C(NCc1ccco1)C(=O)N1CCCC1 | 11.9 |
| CC(=O)Nc1ccc(NC(=O)COc2ccc(Br)c(C)c2)cc1 | 1.1 |
| COc1cccc(C2C(C(=O)Nc3ccccc3)=C(C)N=c3s/c(=C/c4ccccc4OC)c(=O)n32)c1 (configuration not stated) | 12.1 |
| N#C/C(=C/c1cccc(Cl)c1)c1nc(-c2ccc(Cl)cc2)cs1 | -4.7 |
| O=C(Nc1ccccc1)N1CCN(Cc2ccc3c(c2)OCO3)CC1 | -7.4 |
| O=C(NC1CCCCCC1)c1ccc([N+](=O)[O-])o1 | -9.7 |
| COc1ccc(N2C(=O)/C(=C\c3cccc(OC(=O)c4ccco4)c3)SC2=S)cc1 | 5.7 |
| O=C(Nc1c(Cl)cccc1Cl)c1ccc(F)cc1 | -2.7 |
| O=C(Nc1ccc(Cl)c(Cl)c1)Nc1nnc(CSCc2ccccc2)s1 | 2.9 |
| COc1cc(NC(=O)c2cc(Cl)ccc2Cl)ccc1NC(=O)c1ccco1 | 11.2 |
| C=CCN1C(=O)/C(=C\c2ccc(OC)cc2)SC1=Nc1ccccc1 | 14.7 |
| COc1ccc(OCC(=O)N/N=C/c2ccc(C)cc2)cc1 | -3.8 |
| CC(C)C12CN(C(=O)c3ccccc3)CC(C(C)C)(CN(C(=O)c3ccccc3)C1)C2=O | 7.6 |
| S=C(NCCSc1ccccn1)Nc1ccccc1 | -8.2 |
| CCOC(=O)C1=C(O)/C(=C/c2ccc(OC)cc2OC)SC1=Nc1ccccc1 | -62 |
| O=C(CNC(=O)/C(=C\c1ccccc1F)NC(=O)c1ccccc1)OCc1ccccc1 | -3.5 |
| N#CCC(=O)NNCc1cc(-c2ccccc2)n(-c2ccccc2)c1-c1ccccc1 | 32.7 |
| Cc1ccc(C2(c3ccc(C)cc3)C(=O)NCc3ccccc32)cc1 | -1.2 |
| S=c1[nH]nc(-c2ccccc2)c2ccccc12 | 7.9 |
| O=C(Nc1ccccc1C(=O)O)c1ccc2c(c1)C(=O)N(c1cccc([N+](=O)[O-])c1)C2=O | 20 |
| COc1ccc(CC(=O)O/N=C(\N)c2ccc(Br)cc2)cc1OC | 6.5 |
| COc1ccc(OC)c(NC2=NC3(CCCCC3)N=C(N)N2)c1 | -0.5 |

| Compound | displacement [%] |
| --- | --- |
| O=C(NCCN1CCCCC1)/C(=N\O)c1ccccn1 | -1.8 |
| COc1ccc(C2OCC3(CO2)SC2=NCN(C)CN2C3=O)cc1OC (configuration not stated) | 11.9 |
| O=C(c1ccccc1)N1CCN=C1c1ccccc1 | 8.7 |
| CC(Oc1ccccc1)C(=O)Nc1ccc(Cl)c(C(N)=O)c1 (configuration not stated) | 3.2 |
| C/C(=N\NC(=O)CCN1CCN(C)CC1)c1ccc(O)cc1 | -0.7 |
| CC(C)c1ccc(-c2cc(C(=O)O)c3ccccc3n2)cc1 | -0.7 |
| COc1ccc(C(=O)CC(Nc2ccc([N+](=O)[O-])cc2)c2ccc(Cl)cc2)cc1 (configuration not stated) | -4.2 |
| COc1c(Br)cc(Br)cc1/C=N\NC(=O)c1ccc([N+](=O)[O-])cc1 | 7.8 |
| COc1cccc(N2C(=O)C(=O)/C(=C(\O)c3ccccc3)C2c2ccccc2Cl)c1 (configuration not stated) | -2.1 |
| COc1ccc(Cl)cc1N(CC(=O)N1CCCCC1)S(=O)(=O)c1ccc(C)c([N+](=O)[O-])c1 | 2.3 |
| O=C(c1ccc(F)cc1F)N1CCN(c2cc(N3CCCCC3)c(F)cc2[N+](=O)[O-])CC1 | -8 |
| COc1cc(/C=C2/C(=O)NC(=O)N(c3ccccc3C)C2=O)ccc1OCCOc1ccccc1 | 69.3 |
| O=C(Cc1ccc(Br)cc1)Nc1ccc(Cl)c([N+](=O)[O-])c1 | 11.1 |
| Cn1c(O)c(N=NC(N)=O)c2ccccc21 | 6.6 |
| CN1C(=O)/C(=C\c2ccc(OCCOc3ccc(Br)cc3)cc2)SC1=S | 16.9 |
| Cc1cccc(C(=O)N(C(=O)c2cccc(C)c2)c2ncccn2)c1 | 0.4 |
| CCOc1ccc(C(=O)Nc2cccc(NC(=O)c3cccc4ccccc34)c2)cc1 | 8.6 |
| C=CCn1c(C)nc2c(cnn2-c2ccccc2)c1=O | -0.7 |
| O=C(CSc1ncn[nH]1)Nc1ccc(Cl)cc1 | -4.9 |
| O=C(NC(Nc1ccccc1F)C(=O)c1ccccc1)c1ccco1 (configuration not stated) | 4.5 |
| CC(=O)N1C(=O)/C(=C2\SC(=S)N(Cc3ccccc3)C2=O)c2ccccc21 | -15 |
| O=C(Cc1ccccc1[N+](=O)[O-])Nc1ccc(OCc2ccccc2)cc1 | 4.7 |

| Compound | displacement [%] |
| --- | --- |
| O=C(Nc1ccccc1I)C1CC(=O)N(c2ccc(Cl)cc2)C1 (configuration not stated) | 7.5 |
| CCC(C)N1CCN(S(=O)(=O)c2ccccc2)CC1 (configuration not stated) | -11 |
| CC(=O)c1ccc(S(=O)(=O)NCc2cccnc2)cc1 | 8 |
| COC(=O)/C=C(\C)NCCN/C(C)=C/C(=O)OC | -11.3 |
| O=C(CCN1C(=O)c2cccc3cccc(c23)C1=O)NCc1ccco1 | -2.6 |
| COc1ccccc1N1C(=O)c2ccc(C(=O)Nc3cc(C(=O)O)ccc3C)cc2C1=O | -4.5 |
| CCC(C)(C)C1CCc2c(sc(NC(=O)c3ccc([N+](=O)[O-])c(C)c3)c2C(N)=O)C1 (configuration not stated) | -0.5 |
| CC(=O)c1ccc(N2C(=O)CC(N(C)Cc3ccccc3)C2=O)cc1 (configuration not stated) | -3.3 |
| CCOC(=O)c1c(NC(=O)C23CC4CC(CC(C4)C2)C3)sc(C(=O)Nc2ccccc2F)c1C | -3.9 |
| Cc1onc(-c2ccccc2)c1C(=O)Nc1ccc([N+](=O)[O-])cc1Cl | 1.5 |
| COc1ccc(C2/C(=C(\O)c3ccc(Cl)cc3)C(=O)C(=O)N2CCCCCC(=O)O)cc1OC (configuration not stated) | -5.1 |
| O=C(NNC(=O)c1cc(NC(=O)c2ccc([N+](=O)[O-])cc2)cc(C(=O)NNC(=O)c2ccccc2)c1)c1ccccc1 | -6.9 |
| N#Cc1c(NC(=O)/C=C/c2ccccc2)sc2c1CCCC2 | 5.2 |
| COc1ccc(S(=O)(=O)N(CC(=O)Nc2cc(Cl)ccc2C)Cc2ccccc2)cc1 | -6 |
| Brc1cccc(-c2nnc(SCc3ccccc3)o2)c1 | -18.6 |
| O=C(Nc1ccc(I)cc1Cl)c1cccs1 | -12.3 |
| O=C(Nc1ccncc1)c1cc(Cl)ccc1Cl | 3.7 |
| O=C(Nc1cccc2c1CCCC2)c1ccc(Br)cc1 | -4.8 |
| N#C/C(=C\c1ccc(O)cc1)c1nc(-c2ccc(-c3ccccc3)cc2)cs1 | 21.6 |
